Publication PMC4336329 (PLoS ONE, 2015)
The campaign covered roughly 310,000 compounds. About 2,200 (0.71%) showed an effect of 50% or more. The effect is printed as a negative number. This is one part of the list.

molecular target: human ether-à-go-go-related gene (hERG) potassium channel (human, UniProt Q12809); assay: primary screen, population patch clamp on CHO cells stably expressing hERG
Sequence (Q12809 whole entry, looked up): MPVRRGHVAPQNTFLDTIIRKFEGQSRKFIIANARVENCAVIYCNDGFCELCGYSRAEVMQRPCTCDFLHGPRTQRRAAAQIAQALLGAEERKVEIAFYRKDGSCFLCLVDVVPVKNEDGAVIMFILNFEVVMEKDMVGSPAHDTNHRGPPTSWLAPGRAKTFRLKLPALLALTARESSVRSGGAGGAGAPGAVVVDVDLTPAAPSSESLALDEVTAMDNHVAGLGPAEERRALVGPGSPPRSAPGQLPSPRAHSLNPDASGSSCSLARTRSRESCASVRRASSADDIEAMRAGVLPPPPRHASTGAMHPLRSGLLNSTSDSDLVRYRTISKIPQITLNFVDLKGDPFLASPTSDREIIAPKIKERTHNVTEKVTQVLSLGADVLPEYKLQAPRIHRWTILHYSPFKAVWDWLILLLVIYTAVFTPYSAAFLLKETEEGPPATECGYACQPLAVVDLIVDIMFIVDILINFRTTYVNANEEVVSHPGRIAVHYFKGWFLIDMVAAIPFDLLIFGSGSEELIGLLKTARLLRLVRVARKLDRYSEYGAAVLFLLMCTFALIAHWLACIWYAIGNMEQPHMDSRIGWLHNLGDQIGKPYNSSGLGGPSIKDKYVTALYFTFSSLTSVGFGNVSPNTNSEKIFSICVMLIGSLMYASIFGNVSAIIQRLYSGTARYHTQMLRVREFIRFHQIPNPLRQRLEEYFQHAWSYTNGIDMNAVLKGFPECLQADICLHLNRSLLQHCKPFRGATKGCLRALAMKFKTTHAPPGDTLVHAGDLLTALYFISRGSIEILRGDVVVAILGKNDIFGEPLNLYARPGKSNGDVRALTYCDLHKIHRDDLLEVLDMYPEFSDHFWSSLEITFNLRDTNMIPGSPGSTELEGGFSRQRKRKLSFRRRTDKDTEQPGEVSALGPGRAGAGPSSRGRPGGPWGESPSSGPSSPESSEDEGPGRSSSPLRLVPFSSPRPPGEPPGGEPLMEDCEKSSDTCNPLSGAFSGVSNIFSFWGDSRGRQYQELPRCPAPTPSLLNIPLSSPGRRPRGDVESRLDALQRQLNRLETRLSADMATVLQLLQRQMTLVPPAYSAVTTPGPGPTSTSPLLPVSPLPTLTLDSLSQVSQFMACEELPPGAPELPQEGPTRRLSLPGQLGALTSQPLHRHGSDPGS

Row | Structure (SMILES) | hERG current change (%, negative = inhibition) at 1uM [%]
1 | NC(=O)c1ccccc1NC(=S)NC(=O)CCc1ccccc1 | 6.72
2 | CCN1CCN(CCCN(Cc2ccco2)C(=S)Nc2cccc(Cl)c2C)CC1 | -8.07
3 | O=C1c2cccc3cccc(c23)C(=O)N1c1cccnc1 | 17.3
4 | CC(C)C[C@H](NC(=O)NC1CCCc2ccccc21)C(=O)O (stereo partly shown) | 9.1
5 | CCN(CC)CCCN1C(=O)C(=O)/C(=C(/O)c2cc(C)ccc2C)C1c1cccnc1 (stereo not shown) | 3.66
6 | CCCCNC(=O)N(CC)c1c(N)n(Cc2ccccc2)c(=O)[nH]c1=O | 6.73
7 | O=C1CC(c2cccc(Cl)c2)CC(O)=C1C=Nc1cccc(Cl)c1 (stereo not shown) | 3.81
8 | Cc1cccn2c(=O)c3cc(C(=O)NCCN4CCOCC4)c(=N)n(CCN4CCOCC4)c3nc12 | 12.2
9 | Cc1ccc(-c2nnnn2CS(=O)(=O)c2ccccc2)cc1 | 10.2
10 | CC(C)(C)OC(=O)N[C@@H](Cc1ccccc1)C(=O)N1CCC(C(=O)NCC(=O)O)CC1 | 5.87
11 | CCOc1ccc(NC(=O)COc2ccc(C(=O)N3CCC(C(N)=O)CC3)cc2OC)cc1 | 11.1
12 | CC(C)CC1NC(=O)N(CC(=O)N2CCN(S(=O)(=O)c3ccccc3)CC2)C1=O (stereo not shown) | 8.79
13 | CCC(=O)c1ccccc1OCCCn1cncn1 | 6.77
14 | Cc1ccc(C(C)C)c(OCCCCN2CCNCC2)c1.O=C(O)C(=O)O | 8.87
15 | Cc1ccc(S(=O)(=O)NCCC(=O)OCc2ccc([N+](=O)[O-])cc2)cc1C | 5.55
16 | OC1CCCN(c2c3c(nc4cc(-c5cccc(Cl)c5)nn24)CCC3)C1 (stereo not shown) | 4.89
17 | c1ccc(C2=NOC(c3nnc(-c4ccccc4)o3)C2)cc1 (stereo not shown) | -26.2
18 | COc1ccccc1S(=O)(=O)Nc1ccc2cn[nH]c2c1 | 10.6
19 | S=C1NC2(CCCCCC2)N=C1c1ccccc1 | 10.2
20 | O=C(/C=C/c1ccco1)N/C(=C\c1ccccc1)C(=O)NCCc1nc2ccccc2[nH]1 | -3.22
21 | Cc1cc(C)c2c(=O)[nH]c(SCc3ccc([N+](=O)[O-])cc3)nc2n1 | 5.09
22 | COc1ccc(C2CCCN2C(=S)Nc2ccc(C)cc2C)cc1OC (stereo not shown) | -5.37

Row | Structure (SMILES) | hERG current change (%, negative = inhibition) at 1uM [%]
23 | COc1ccc(/C(N)=N/OC(=O)C2CCCCC2)cc1OC | 13.8
24 | CC1CCC(N2CC(=O)N(Cc3ccc4c(c3)OCO4)C(c3ccc(F)cc3)C2=O)CC1 (stereo not shown) | -5.74
25 | COc1ccc(N2CC(C(=O)Nc3nnc(SCC(=O)NC(C)(C)C)s3)CC2=O)cc1 (stereo not shown) | 9.2
26 | CCN(CC)S(=O)(=O)c1ccc(/C=C/C(=O)OCC(=O)Nc2ccc(S(N)(=O)=O)cc2)cc1 | -3.26
27 | Cn1cnnc1SCC(=O)c1cc2ccccc2oc1=O | 10.6
28 | Cc1c(Cl)cccc1NC(=O)COC(=O)C12CC3CC(CC(O)(C3)C1)C2 | 6.7
29 | Cc1c(CCC(=O)O)c(=O)oc2cc3occ(-c4ccc(Cl)cc4)c3cc12 | 16
30 | Cc1cc(C(F)(F)F)n2nc(-c3cnn(C)c3C(F)(F)F)c(Br)c2n1 | -5.85
31 | Cc1ccc2nc(-c3ccncc3)cc(C(=O)Nc3ccc(OC(F)F)cc3)c2c1 | 6.52
32 | O=C(NC1CCCCC1)C(c1cccs1)N(Cc1cccs1)C(=O)c1cccs1 (stereo not shown) | 12.5
33 | CC(=O)Nc1nc(-c2ccc(Br)s2)cs1 | 14.8
34 | O=C(c1ccc(Cl)cc1)c1c[nH]c(C(=O)NNc2cccc(Cl)n2)c1 | 12.8
35 | N#CC1=C(SCC(N)=O)NC2=C(C(=O)c3ccccc32)C1c1ccc(Cl)cc1 (stereo not shown) | 5.65
36 | CCNS(=O)(=O)c1ccc(CCC(=O)N2CCN(C(=O)OCC)CC2)cc1 | 10.8
37 | CCOC(=O)Cc1cnc(NC(=O)NC(C(=O)OCC)(c2ccccc2)C(F)(F)F)s1 (stereo not shown) | -0.0449
38 | O=C(N/N=C/c1ccc(OCc2ccccc2)cc1)c1cccs1 | 15.9
39 | Fc1cccc(/C=N/Nc2cc(N3CCOCC3)ncn2)c1 | 16.8
40 | COc1ccccc1-c1cnn2c(N3CCOCC3)cc(C)nc12 | 17.6
41 | CC(C)CCNC(=O)c1cn(C)c2ccc(S(=O)(=O)N3CCCC3)cc2c1=O | 4.69
42 | CCN1C(=O)N[C@@H](c2cccc(C(F)(F)F)c2)C(C(C)=O)=C1C | 4.91
43 | Cc1cc(C)cc(OCc2nnc(SCC(=O)N3CCCCC3)o2)c1 | 10.2
44 | COc1ccc(NC(=O)C2CCCN2S(=O)(=O)c2ccc3c(c2)CCC(=O)N3)cc1Cl (stereo not shown) | -6.94

Row | Structure (SMILES) | hERG current change (%, negative = inhibition) at 1uM [%]
45 | COc1ccc(Cn2nnnc2CN(CCCN2CCOCC2)Cc2cc3cc(OC)ccc3[nH]c2=O)cc1 | 0.319
46 | COc1ccc(Cl)cc1C(=O)Nc1cccc2ncccc12 | 14.6
47 | O=C(C(=O)N1CCc2ccccc2C1)c1cn(CC(=O)N2CCOCC2)c2ccccc12 | 2.59
48 | C[C@H]1NC(=O)[C@@]2(C)[C@@H](c3ccccc3)[C@H]3COc4ccccc4[C@@H]3N2C1=O | 11.1
49 | O=C(O)CC1(O)C(=O)N(Cc2ccccc2)c2ccccc21 (stereo not shown) | 14.2
50 | Cc1occc1C(=O)NNC(=O)C1CCCC1 | -1.21
51 | CCN(c1cccc(C)c1)S(=O)(=O)c1ccc(-c2coc(C)n2)cc1 | 14.1
52 | O=C(O)C(=O)O.c1ccc(Cn2c(SCCN3CCOCC3)nnc2-c2cccnc2)cc1 | 11.2
53 | O=C(OCC(=O)N1CCN(c2ccccc2)CC1)c1cnc(Cl)c(Cl)c1 | -12.7
54 | Cc1cc(C)cc(OCC(=O)OCC(=O)N2CCc3ccccc32)c1 | 10.8
55 | Cc1cccc(-n2c(SCC(=O)c3c(N)n(C4CC4)c(=O)[nH]c3=O)nnc2N2CCOCC2)c1 | 9.07
56 | C=CCSc1nc2ccccc2n1C(=O)/C=C/c1cc(OC)c(OC)c(OC)c1 | 8.24
57 | O=C(c1ccc2c(c1)OCCO2)C1CCN(C(=O)c2ccc(F)c(F)c2)CC1 | 2.71
58 | O=C(NC(Cc1ccccc1)C(=O)N1CCN(S(=O)(=O)c2ccccc2F)CC1)c1ccccc1 (stereo not shown) | 11.7
59 | Cc1cc(C)nc(/N=c2/ssnc2Cl)c1 | -2.66
60 | CCOC(=O)c1ccc2nc(NC(=O)c3cccs3)sc2c1 | 8.7
61 | CCN(CC(=O)Nc1ccccc1C(F)(F)F)C(=O)c1ccc(=O)n(Cc2ccccc2)n1 | -2.63
62 | O=C(O)C(=O)O.O=S(=O)(c1ccccc1)N1CCN(CC2CC3C=CC2C3)CC1 (stereo not shown) | 3.05
63 | CCOC(=O)C1CCCN(Cc2c(F)cccc2Cl)C1 (stereo not shown) | -6.01
64 | CC(=O)NCCC(=O)Nc1cc(S(=O)(=O)N2CCOCC2)ccc1Oc1ccccc1 | 10.7
65 | CCc1sc(NC(=O)CN2CCOCC2)nc1-c1ccccc1 | 5.32
66 | COc1ccc(C#Cc2c(-c3ccc(OC)cc3)oc3ccc(-c4ccc(OC)cc4)cc23)cc1 | 3.27

Row | Structure (SMILES) | hERG current change (%, negative = inhibition) at 1uM [%]
67 | O=CN1CCN(C2CC(=O)N(c3ccc4c(c3)OCO4)C2=O)CC1 (stereo not shown) | 9.67
68 | CC(=O)N1CCN(S(=O)(=O)c2cccc(C(=O)Nc3nc4ccccc4[nH]3)c2)CC1 | 15.3
69 | CCOC(=O)[C@H]1[C@H]2COc3cc(OC)ccc3[C@@H]2N2C(=O)c3cc(F)c(F)cc3NC(=O)[C@@]12C | 6.58
70 | O=C(COc1ccccc1)N(Cc1ccco1)C1CCS(=O)(=O)C1 (stereo not shown) | -0.714
71 | CN(C)c1ccc(C(=O)Nc2nnc(C3=COCCO3)o2)cc1 | 8.48
72 | CCC(C(=O)Nc1ccc(S(=O)(=O)Nc2ncccn2)cc1)c1ccccc1 (stereo not shown) | 12.7
73 | Cc1ccc(/C=N/NC(=O)c2c[nH]c3ccccc23)o1 | 13.5
74 | O=C(Cc1ccc([N+](=O)[O-])cc1)Nc1ccc(Br)cn1 | 3.47
75 | Cc1sc(Cc2nc(O)cs2)nc1-c1ccccc1 | 16.6
76 | COC(=O)c1ccccc1NC(=O)N1CCc2ccc(NC(=O)c3ccccn3)cc2C1 | 4.89
77 | Cc1cc(=O)oc2c3c(cc(OCC(=O)NCc4ccccc4)c12)OC(C)(C)CC3 | 2.04
78 | Cl.c1ccc(C2CCC(N3CCNCC3)CC2)cc1 (stereo not shown) | -4.05
79 | N#CCCN(Cc1ccccc1)S(=O)(=O)c1cccs1 | 8.93
80 | C=CCOc1ccc(/C(CC)=N/O)cc1OC | 13
81 | N#CCSc1nc2ccc(N3CCOCC3)cc2c(=O)n1CCc1ccccc1 | 3.24
82 | COc1ccc(CNCCc2ccc([N+](=O)[O-])cc2)c(OC)c1OC.O=C(O)C(=O)O | -49.4
83 | CC(=O)Nc1ccc(N/C=C/C(=O)c2ccc(C)o2)cc1 | 11.7
84 | COc1ccccc1/C=N/NC(=O)CCn1cnc2ccccc21 | 9.63
85 | CC(C)(C)c1ccc(NC(=O)c2cc[n+]([O-])cc2)cc1 | 11.6
